Assay results taken from PubChem BioAssay AID493208 (National Center for Advancing Translational Sciences (NCATS), 2011).
In all, about 44,000 compounds went through this assay and about 340 (0.77%) were called active. Inconclusive results (about 5%) are left out. Calls come from the whole dose curve; as a rule, active = well fitted inhibition curve with a large enough effect; inconclusive = small, poorly fitted or top-dose-only effect; inactive = flat fitted curve, though single readings scatter. Some of the results follow.

Experiment: Acumen qHTS Assay for Inhibitors of the mTORC1 Signaling Pathway in MEF (Tsc2-/-, p53-/-) Cells: Sytravon;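 note: plate controls were DMSO for no effect and rapamycin for full effect; nearly all actives have a fitted effect of over 50% in size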
Conditions: phospho-rpS6 immunofluorescence/PI, 24 h; series mostly up to 38.3 µM; activity change, negative = inhibition: at the top concentration
Summary of the method: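 Plate MEFs (Tsc2-/-, p53-/-, empty vector) in DMEM/10% FBS; after 24 h add compound, incubate 24 h at 37 degree Celsius; fix in PFA/TX-100, block, stain phospho-rpS6 and 10 uM PI; scan at 488 nm; report % positive cells.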

Structure (SMILES) | activity change, negative = inhibition
CCOC(=O)c1cc2c(=O)n3ccccc3nc2n(C(C)C)c1=NC(=O)c1cc2ccccc2o1 | inactive: -3.25%
COc1ccc(-n2nc(C(=O)N3CCCC(C)C3)c3c4ccccc4n(C)c3c2=O)cc1 (configuration not stated) | inactive: 2.03%
CCc1ccc(C(=O)c2cn(CC(=O)NC3CCCCC3)c3nc(C)ccc3c2=O)cc1 | inactive: -5.11%
O=C(c1ccccc1)n1nc(-c2ccccc2)nc1NCc1ccc(F)cc1 | inactive: -3.11%
O=C(Nc1ccc(F)c(F)c1)c1cc(S(=O)(=O)NC2CCCCCC2)ccc1F | inactive: 5.9%
CCOc1ccc(N2CC(NC(=O)/C=C\c3ccc4c(c3)OCO4)CC2=O)cc1 (configuration not stated) | inactive: 0.434%
COc1ccc(-n2ccnc(NCc3ccccc3OC)c2=O)cc1 | inactive: -19.4%
CNC(=O)c1c(NC(=O)c2ccc(S(=O)(=O)N3CCCCC3)cc2)sc2c1CCC2 | inactive: 2.57%
CSc1nc2c(c(=O)[nH]1)C(c1cccc(F)c1F)CC(=O)N2 (configuration not stated) | inactive: -2.04%
NS(=O)(=O)c1ccc(CCNc2nccn(-c3cccc(C(F)(F)F)c3)c2=O)cc1 | inactive: 3.69%
O=S(=O)(Nc1cc(F)ccc1F)c1ccc2[nH]c3c(c2c1)CCCC3 | inactive: -4.77%
CC(C)(C)C(=O)Nc1ccc2nc(SCC(=O)N3CCOCC3)sc2c1 | inactive: -0.713%
COc1cccc(CNC(=O)c2ccc3c(c2)c(C)c(C)n3Cc2ccccc2)c1OC | inactive: -7.37%
CC(C)c1ccc(NC(=O)CS(=O)(=O)c2cccc3nsnc23)cc1 | inactive: -3.19%
CCCCN(CCCC)CCNC(=O)Cn1nc(C)n2c(cc3sccc32)c1=O | inactive: 0.338%
Cc1cc(-c2nc3ncccc3o2)ccc1NC(=O)COc1ccccc1C | inactive: 0.218%
CCOC(=O)c1ccccc1NC(=O)CSc1ccc(-c2cccs2)nn1 | inactive: -8.76%
Cc1ccc2occ(CC(=O)N(Cc3ccc(Cl)cc3)C3CCS(=O)(=O)C3)c2c1 (configuration not stated) | inactive: 0.927%
COc1ccc(-c2cc(C(F)(F)F)nc(SCCC(=O)Nc3ccccc3F)n2)cc1 | inactive: 0.636%
O=c1c2oc3ccccc3c2n(Cc2cccc(Cl)c2)c(=O)n1Cc1ccco1 | inactive: 1.85%
O=C(Cc1ccccc1)NC1CC(=O)N(c2ccccc2)C1 (configuration not stated) | inactive: -4.28%
CCc1ccc(Nc2nn(-c3ccc(OC(F)(F)F)cc3)nc2C(C)=O)cc1 | inactive: 2.88%
Cn1cc(S(=O)(=O)c2cccc(Cl)c2)c(=O)c2cc(F)c(N3CCN(c4ccc(F)cc4)CC3)cc21 | inactive: -1.1%
Cc1ccc(-c2noc(CNS(=O)(=O)c3ccc(F)cc3)n2)cc1 | inactive: 4.95%
Cc1cccc(OCC(=O)Nc2nc3c(s2)CC(C(C)(C)C)CC3)c1C (configuration not stated) | inactive: 0.33%
COc1ccccc1N1CCN(C(=O)CN2C(=O)COc3ccc(S(=O)(=O)N4CCCCCC4)cc32)CC1 | inactive: 1.22%
CCN(CC)c1ccc(NC(=O)c2cnc3c(-c4ccccc4)c(C)nn3c2C)c(C)c1 | inactive: 0%
